Measurements as given in the supplement of paper PMC12458215.

Test system: HEK293T
Assay: plasma membrane surface immunostaining intensity (anti-HA, deep receptor scanning) (arbitrary fluorescence units); higher = higher plasma membrane expression
Settings: GPCR class: A

Sequence | plasma membrane surface immunostaining intensity
MAADLGPWNDTINGTWDGDELGYRCRFNEDFKYVLLPVSYGVVCVPGLCLNAVALYIFLCRLKTWNASTTYMFHLAVSDALYAASLPLLVYYYARGDHWPFSTVLCKLVRFLFYTNLYCSILFLTCISVHRCLGVLRPLRSLRWGRARYARRVAGAVWVLVLACQAPVLYFVTTSARGGRVTCHDTSAPELFSRFVAYSSVMLGLLFAVPFAVILVCYVLMARRLLKPAYGTSGGLPRAKRKSVRTIAVVLAVFALCFLPFHVTRTLYYSFRSLDLSCHTLNAINMAYKVTRPLASANSCLDPVLYFLAGQRLVRFARDAKPPTGPSPATPARRRLGLRRSDRTDMQRIEDVLGSSEDSRRTESTPAGSENTKDIRL [P2RY2] | 6180 ± 130
MAAISTSIPVISQPQFTAMNEPQCFYNESIAFFYNRSGKHLATEWNTVSKLVMGLGITVCIFIMLANLLVMVAIYVNRRFHFPIYYLMANLAAADFFAGLAYFYLMFNTGPNTRRLTVSTWLLRQGLIDTSLTASVANLLAIAIERHITVFRMQLHTRMSNRRVVVVIVVIWTMAIVMGAIPSVGWNCICDIENCSNMAPLYSDSYLVFWAIFNLVTFVVMVVLYAHIFGYVRQRTMRMSRHSSGPRRNRDTMMSLLKTVVIVLGAFIICWTPGLVLLLLDVCCPQCDVLAYEKFFLLLAEFNSAMNPIIYSYRDKEMSATFRQILCCQRSENPTGPTEGSDRSASSLNHTILAGVHSNDHSVV [LPAR1] | 3480 ± 810
MAAQNGNTSFTPNFNPPQDHASSLSFNFSYGDYDLPMDEDEDMTKTRTFFAAKIVIGIALAGIMLVCGIGNFVFIAALTRYKKLRNLTNLLIANLAISDFLVAIICCPFEMDYYVVRQLSWEHGHVLCASVNYLRTVSLYVSTNALLAIAIDRYLAIVHPLKPRMNYQTASFLIALVWMVSILIAIPSAYFATETVLFIVKSQEKIFCGQIWPVDQQLYYKSYFLFIFGVEFVGPVVTMTLCYARISRELWFKAVPGFQTEQIRKRLRCRRKTVLVLMCILTAYVLCWAPFYGFTIVRDFFPTVFVKEKHYLTAFYVVECIAMSNSMINTVCFVTVKNNTMKYFKKMMLLHWRPSQRGSKSSADLDLRTNGVPTTEEVDCIRLK [PROKR2] | 485 ± 21
MACNSTSLEAYTYLLLNTSNASDSGSTQLPAPLRISLAIVMLLMTVVGFLGNTVVCIIVYQRPAMRSAINLLLATLAFSDIMLSLCCMPFTAVTLITVRWHFGDHFCRLSATLYWFFVLEGVAILLIISVDRFLIIVQRQDKLNPRRAKVIIAVSWVLSFCIAGPSLTGWTLVEVPARAPQCVLGYTELPADRAYVVTLVVAVFFAPFGVMLCAYMCILNTVRKNAVRVHNQSDSLDLRQLTRAGLRRLQRQQQVSVDLSFKTKAFTTILILFVGFSLCWLPHSVYSLLSVFSQRFYCGSSFYATSTCVLWLSYLKSVFNPIVYCWRIKKFREACIELLPQTFQILPKVPERIRRRIQPSTVYVCNENQSAV [GPR45] | 5440 ± 330
MAGNCSWEAHPGNRNKMCPGLSEAPELYSRGFLTIEQIAMLPPPAVMNYIFLLLCLCGLVGNGLVLWFFGFSIKRNPFSIYFLHLASADVGYLFSKAVFSILNTGGFLGTFADYIRSVCRVLGLCMFLTGVSLLPAVSAERCASVIFPAWYWRRRPKRLSAVVCALLWVLSLLVTCLHNYFCVFLGRGAPGAACRHMDIFLGILLFLLCCPLMVLPCLALILHVECRARRRQRSAKLNHVILAMVSVFLVSSIYLGIDWFLFWVFQIPAPFPEYVTDLCICINSSAKPIVYFLAGRDKSQRLWEPLRVVFQRALRDGAELGEAGGSTPNTVTMEMQCPPGNAS [MRGPRF] | 6500 ± 40
MALNDCFLLNLEVDHFMHCNISSHSADLPVNDDWSHPGILYVIPAVYGVIILIGLIGNITLIKIFCTVKSMRNVPNLFISSLALGDLLLLITCAPVDASRYLADRWLFGRIGCKLIPFIQLTSVGVSVFTLTALSADRYKAIVRPMDIQASHALMKICLKAAFIWIISMLLAIPEAVFSDLHPFHEESTNQTFISCAPYPHSNELHPKIHSMASFLVFYVIPLSIISVYYYFIAKNLIQSAYNLPVEGNIHVKKQIESRKRLAKTVLVFVGLFAFCWLPNHVIYLYRSYHYSEVDTSMLHFVTSICARLLAFTNSCVNPFALYLLSKSFRKQFNTQLLCCQPGLIIRSHSTGRSTTCMTSLKSTNPSVATFSLINGNICHERYV [GRPR] | 1870 ± 250
MALNHTALPQDERLPHYLRDGDPFASKLSWEADLVAGFYLTIIGILSTFGNGYVLYMSSRRKKKLRPAEIMTINLAVCDLGISVVGKPFTIISCFCHRWVFGWIGCRWYGWAGFFFGCGSLITMTAVSLDRYLKICYLSYGVWLKRKHAYICLAAIWAYASFWTTMPLVGLGDYVPEPFGTSCTLDWWLAQASVGGQVFILNILFFCLLLPTAVIVFSYVKIIAKVKSSSKEVAHFDSRIHSSHVLEMKLTKVAMLICAGFLIAWIPYAVVSVWSAFGRPDSIPIQLSVVPTLLAKSAAMYNPIIYQVIDYKFACCQTGGLKATKKKSLEGFRLHTVTTVRKSSAVLEIHEEWE [OPN5] | 6270 ± 74
MALSYRVSELQSTIPEHILQSTFVHVISSNWSGLQTESIPEEMKQIVEEQGNKLHWAALLILMVIIPTIGGNTLVILAVSLEKKLQYATNYFLMSLAVADLLVGLFVMPIALLTIMFEAMWPLPLVLCPAWLFLDVLFSTASIMHLCAISVDRYIAIKKPIQANQYNSRATAFIKITVVWLISIGIAIPVPIKGIETDVDNPNNITCVLTKERFGDFMLFGSLAAFFTPLAIMIVTYFLTIHALQKKAYLVKNKPPQRLTWLTVSTVFQRDETPCSSPEKVAMLDGSRKDKALPNSGDETLMRRTSTIGKKSVQTISNEQRASKVLGIVFFLFLLMWCPFFITNITLVLCDSCNQTTLQMLLEIFVWIGYVSSGVNPLVYTLFNKTFRDAFGRYITCNYRATKSVKTLRKRSSKIYFRNPMAENSKFFKKHGIRNGINPAMYQSPMRLRSSTIQSSSIILLDTLLLTENEGDKTEEQVSYV [HTR2B] | 218 ± 39
MANASEPGGSGGGEAAALGLKLATLSLLLCVSLAGNVLFALLIVRERSLHRAPYYLLLDLCLADGLRALACLPAVMLAARRAAAAAGAPPGALGCKLLAFLAALFCFHAAFLLLGVGVTRYLAIAHHRFYAERLAGWPCAAMLVCAAWALALAAAFPPVLDGGGDDEDAPCALEQRPDGAPGALGFLLLLAVVVGATHLVYLRLLFFIHDRRKMRPARLVPAVSHDWTFHGPGATGQAAANWTAGFGRGPTPPALVGIRPAGPGRGARRLLVLEEFKTEKRLCKMFYAVTLLFLLLWGPYVVASYLRVLVRPGAVPQAYLTASVWLTFAQAGINPVVCFLFNRELRDCFRAQFPCCQSPRTTQATHPCDLKGIGL [GPR27] | 6013 ± 29
MANSTGLNASEVAGSLGLILAAVVEVGALLGNGALLVVVLRTPGLRDALYLAHLCVVDLLAAASIMPLGLLAAPPPGLGRVRLGPAPCRAARFLSAALLPACTLGVAALGLARYRLIVHPLRPGSRPPPVLVLTAVWAAAGLLGALSLLGTPPAPPPAPARCSVLAGGLGPFRPLWALLAFALPALLLLGAYGGIFVVARRAALRPPRPARGSRLHSDSLDSRLSILPPLRPRLPGGKAALAPALAVGQFAACWLPYGCACLAPAARAAEAEAAVTWVAYSAFAAHPFLYGLLQRPVRLALGRLSRRALPGPVRACTPQAWHPRALLQCLQRPPEGPAVGPSEAPEQTPELAGGRSPAYQGPPESSLS [GPR62] | 549 ± 71
MANTTGEPEEVSGALSPPSASAYVKLVLLGLIMCVSLAGNAILSLLVLKERALHKAPYYFLLDLCLADGIRSAVCFPFVLASVRHGSSWTFSALSCKIVAFMAVLFCFHAAFMLFCISVTRYMAIAHHRFYAKRMTLWTCAAVICMAWTLSVAMAFPPVFDVGTYKFIREEDQCIFEHRYFKANDTLGFMLMLAVLMAATHAVYGKLLLFEYRHRKMKPVQMVPAISQNWTFHGPGATGQAAANWIAGFGRGPMPPTLLGIRQNGHAASRRLLGMDEVKGEKQLGRMFYAITLLFLLLWSPYIVACYWRVFVKACAVPHRYLATAVWMSFAQAAVNPIVCFLLNKDLKKCLRTHAPCWGTGGAPAPREPYCVM [GPR173] | 6404 ± 39
MANYSHAADNILQNLSPLTAFLKLTSLGFIIGVSVVGNLLISILLVKDKTLHRAPYYFLLDLCCSDILRSAICFPFVFNSVKNGSTWTYGTLTCKVIAFLGVLSCFHTAFMLFCISVTRYLAIAHHRFYTKRLTFWTCLAVICMVWTLSVAMAFPPVLDVGTYSFIREEDQCTFQHRSFRANDSLGFMLLLALILLATQLVYLKLIFFVHDRRKMKPVQFVAAVSQNWTFHGPGASGQAAANWLAGFGRGPTPPTLLGIRQNANTTGRRRLLVLDEFKMEKRISRMFYIMTFLFLTLWGPYLVACYWRVFARGPVVPGGFLTAAVWMSFAQAGINPFVCIFSNRELRRCFSTTLLYCRKSRLPREPYCVI [GPR85] | 652 ± 190
MAPTEPWSPSPGSAPWDYSGLDGLEELELCPAGDLPYGYVYIPALYLAAFAVGLLGNAFVVWLLAGRRGPRRLVDTFVLHLAAADLGFVLTLPLWAAAAALGGRWPFGDGLCKLSSFALAGTRCAGALLLAGMSVDRYLAVVKLLEARPLRTPRCALASCCGVWAVALLAGLPSLVYRGLQPLPGGQDSQCGEEPSHAFQGLSLLLLLLTFVLPLVVTLFCYCRISRRLRRPPHVGRARRNSLRIIFAIESTFVGSWLPFSALRAVFHLARLGALPLPCPLLLALRWGLTIATCLAFVNSCANPLIYLLLDRSFRARALDGACGRTGRLARRISSASSLSRDDSSVFRCRAQAANTASASW [GPR25] | 512 ± 62

Same assay, conditions: GPCR class: B

Sequence | plasma membrane surface immunostaining intensity
MAGLGASLHVWGWLMLGSCLLARAQLDSDGTITIEEQIVLVLKAKVQCELNITAQLQEGEGNCFPEWDGLICWPRGTVGKISAVPCPPYIYDFNHKGVAFRHCNPNGTWDFMHSLNKTWANYSDCLRFLQPDISIGKQEFFERLYVMYTVGYSISFGSLAVAILIIGYFRRLHCTRNYIHMHLFVSFMLRATSIFVKDRVVHAHIGVKELESLIMQDDPQNSIEATSVDKSQYIGCKIAVVMFIYFLATNYYWILVEGLYLHNLIFVAFFSDTKYLWGFILIGWGFPAAFVAAWAVARATLADARCWELSAGDIKWIYQAPILAAIGLNFILFLNTVRVLATKIWETNAVGHDTRKQYRKLAKSTLVLVLVFGVHYIVFVCLPHSFTGLGWEIRMHCELFFNSFQGFFVSIIYCYCNGEVQAEVKKMWSRWNLSVDWKRTPPCGSRRCGSVLTTVTHSTSSQSQVAASTRMVLISGKAAKIASRQPDSHITLPGYVWSNSEQDCLPHSFHEETKEDSGRQGDDILMEKPSRPMESNPDTEGCQGETEDVL [PTH2R] | 1640 ± 550

Same assay, conditions: GPCR class: C

Sequence | plasma membrane surface immunostaining intensity
MAIHKALVMCLGLPLFLFPGAWAQGHVPPGCSQGLNPLYYNLCDRSGAWGIVLEAVAGAGIVTTFVLTIILVASLPFVQDTKKRSLLGTQVFFLLGTLGLFCLVFACVVKPDFSTCASRRFLFGVLFAICFSCLAAHVFALNFLARKNHGPRGWVIFTVALLLTLVEVIINTEWLIITLVRGSGEGGPQGNSSAGWAVASPCAIANMDFVMALIYVMLLLLGAFLGAWPALCGRYKRWRKHGVFVLLTTATSVAIWVVWIVMYTYGNKQHNSPTWDDPTLAIALAANAWAFVLFYVIPEVSQVTKSSPEQSYQGDMYPTRGVGYETILKEQKGQSMFVENKAFSMDEPVAAKRPVSPYSGYNGQLLTSVYQPTEMALMHKVPSEGAYDIILPRATANSQVMGSANSTLRAEDMYSAQSHQAATPPKDGKNSQVFRNPYVWD [GPRC5C] | 6290 ± 100

± gives the uncertainty stated by the source.
